{
  "source": "the supplement of paper PMC12217912",
  "parents": {"B1": {"name": "TEV protease; numbered along this chain (parent)", "chain": "MGESLFKGPRDYNPISSSICHLTNESDGHTTSLYGIGFGPFIITNKHLFRRNNGTLVVQSLHGVFKVKDTTTLQQHLVDGRDMIIIRMPKDFPPFPQKLKFREPQREERICLVTTNFQTKSMSSMVSDTSCTFPSGDGIFWKHWIQTKDGQCGSPLVSTRDGFIVGIHSASNFTNTNNYFTSVPKNFMELLTNQEAQQWVSGWRLNADSVLWGGHKVFMVKPEEPFQPVKEATQL"}},
  "note": "The other results are listed elsewhere or left out. The full chains were built here from the parent and the listed change. Inactive controls read about 0.05.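 Also: Bxb1 expression induced with 0.2% (w/v) L-rhamnose at OD600 near 0.5, cultures sampled hourly, flipped fraction per protease–substrate barcode pair counted by paired-end Illumina sequencing.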",
  "data": [
    {"variants_of": "B1", "assay": "raw area under fraction-flipped curve 0-4 h after induction (AUC4h, not background-subtracted), DNA-recorder readout of cleavage of the substrate (dimensionless); higher = more cleavage of the substrate by the protease variant", "settings": "temperature: 34 °C; time window: 0-4 h after rhamnose induction", "experimental": "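In vivo DNA recorder in E. coli TOP10(DE3) ΔrhaA at 34 °C. Each TEVp single-site mutant (parent TEVp 0) is paired with a single-site variant of the 7-mer TEVs (canonical ENLYFQ|S). The substrate sits between flexible linkers in a Bxb1-sfGFP-TEVs-SsrA fusion, so cleavage stabilises Bxb1 and speeds flipping of a recombination array, read by NGS. The value is the raw area under the fraction-flipped curve over 0-4 h after rhamnose induction (AUC4h), with ≥20 reads per time point. It is not background-subtracted; inactive controls average about 0.047.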", "values": [
      {"variant": "MGESLFKGPRDYNPISSSICHLTNESDGHTTSLYGIGFGPFIITNKHLFRRNNGTLVVQSLHGVFKVKDTTTLQQHLVDGRDMIIIRMPKDFPPFPQKLKFREPQREERRCLVTTNFQTKSMSSMVSDTSCTFPSGDGIFWKHWIQTKDGQCGSPLVSTRDGFIVGIHSASNFTNTNNYFTSVPKNFMELLTNQEAQQWVSGWRLNADSVLWGGHKVFMVKPEEPFQPVKEATQL", "note": "[I110R]", "area with substrate ENLYFQA": 0.048, "area with substrate ENLYFQC": 0.0489, "area with substrate ENLYFQF": 0.0414, "area with substrate ENLYFQG": 0.0503, "area with substrate ENLYFQN": 0.0692, "area with substrate ENLYFQR": 0.0545, "area with substrate ENLYFQS": 0.0559, "area with substrate ENLYFQW": 0.0553},
      {"variant": "MGESLFKGPRDYNPISSSICHLTNESDGHTTSLYGIGFGPFIITNKHLFRRNNGTLVVQSLHGVFKVKDTTTLQQHLVDGRDMIIIRMPKDFPPFPQKLKFREPQREERIALVTTNFQTKSMSSMVSDTSCTFPSGDGIFWKHWIQTKDGQCGSPLVSTRDGFIVGIHSASNFTNTNNYFTSVPKNFMELLTNQEAQQWVSGWRLNADSVLWGGHKVFMVKPEEPFQPVKEATQL", "note": "[C111A]", "area with substrate ENLYFQA": 0.0822, "area with substrate ENLYFQC": 0.114, "area with substrate ENLYFQQ": 0.0823, "area with substrate ENLYFQR": 0.0542, "area with substrate ENLYFQS": 0.104},
      {"variant": "MGESLFKGPRDYNPISSSICHLTNESDGHTTSLYGIGFGPFIITNKHLFRRNNGTLVVQSLHGVFKVKDTTTLQQHLVDGRDMIIIRMPKDFPPFPQKLKFREPQREERICLKTTNFQTKSMSSMVSDTSCTFPSGDGIFWKHWIQTKDGQCGSPLVSTRDGFIVGIHSASNFTNTNNYFTSVPKNFMELLTNQEAQQWVSGWRLNADSVLWGGHKVFMVKPEEPFQPVKEATQL", "note": "[V113K]", "area with substrate ENLYFQA": 0.0591, "area with substrate ENLYFQC": 0.0772, "area with substrate ENLYFQD": 0.0544, "area with substrate ENLYFQF": 0.0577, "area with substrate ENLYFQH": 0.0609, "area with substrate ENLYFQL": 0.0511, "area with substrate ENLYFQM": 0.0567, "area with substrate ENLYFQN": 0.0764, "area with substrate ENLYFQP": 0.06, "area with substrate ENLYFQQ": 0.0646, "area with substrate ENLYFQR": 0.0609, "area with substrate ENLYFQS": 0.0663, "area with substrate ENLYFQT": 0.0505},
      {"variant": "MGESLFKGPRDYNPISSSICHLTNESDGHTTSLYGIGFGPFIITNKHLFRRNNGTLVVQSLHGVFKVKDTTTLQQHLVDGRDMIIIRMPKDFPPFPQKLKFREPQREERICLWTTNFQTKSMSSMVSDTSCTFPSGDGIFWKHWIQTKDGQCGSPLVSTRDGFIVGIHSASNFTNTNNYFTSVPKNFMELLTNQEAQQWVSGWRLNADSVLWGGHKVFMVKPEEPFQPVKEATQL", "note": "[V113W]", "area with substrate ENLYFQA": 0.0814, "area with substrate ENLYFQC": 0.0724, "area with substrate ENLYFQL": 0.0791, "area with substrate ENLYFQM": 0.0583, "area with substrate ENLYFQN": 0.0682, "area with substrate ENLYFQP": 0.0687, "area with substrate ENLYFQQ": 0.0541, "area with substrate ENLYFQR": 0.0484, "area with substrate ENLYFQS": 0.0899, "area with substrate ENLYFQY": 0.0782},
      {"variant": "MGESLFKGPRDYNPISSSICHLTNESDGHTTSLYGIGFGPFIITNKHLFRRNNGTLVVQSLHGVFKVKDTTTLQQHLVDGRDMIIIRMPKDFPPFPQKLKFREPQREERICLYTTNFQTKSMSSMVSDTSCTFPSGDGIFWKHWIQTKDGQCGSPLVSTRDGFIVGIHSASNFTNTNNYFTSVPKNFMELLTNQEAQQWVSGWRLNADSVLWGGHKVFMVKPEEPFQPVKEATQL", "note": "[V113Y]", "area with substrate ENLYFQA": 0.129, "area with substrate ENLYFQH": 0.0737, "area with substrate ENLYFQI": 0.0693, "area with substrate ENLYFQL": 0.0632, "area with substrate ENLYFQM": 0.0782, "area with substrate ENLYFQN": 0.117, "area with substrate ENLYFQP": 0.0645, "area with substrate ENLYFQR": 0.063, "area with substrate ENLYFQS": 0.0991, "area with substrate ENLYFQW": 0.0597},
      {"variant": "MGESLFKGPRDYNPISSSICHLTNESDGHTTSLYGIGFGPFIITNKHLFRRNNGTLVVQSLHGVFKVKDTTTLQQHLVDGRDMIIIRMPKDFPPFPQKLKFREPQREERICLVLTNFQTKSMSSMVSDTSCTFPSGDGIFWKHWIQTKDGQCGSPLVSTRDGFIVGIHSASNFTNTNNYFTSVPKNFMELLTNQEAQQWVSGWRLNADSVLWGGHKVFMVKPEEPFQPVKEATQL", "note": "[T114L]", "area with substrate ENLYFQA": 0.0983, "area with substrate ENLYFQC": 0.104, "area with substrate ENLYFQF": 0.07, "area with substrate ENLYFQH": 0.0877, "area with substrate ENLYFQI": 0.092, "area with substrate ENLYFQK": 0.0752, "area with substrate ENLYFQL": 0.0683, "area with substrate ENLYFQM": 0.0801, "area with substrate ENLYFQP": 0.0525, "area with substrate ENLYFQQ": 0.0894, "area with substrate ENLYFQS": 0.112, "area with substrate ENLYFQT": 0.0637, "area with substrate ENLYFQV": 0.0641, "area with substrate ENLYFQW": 0.0852, "area with substrate ENLYFQY": 0.0945},
      {"variant": "MGESLFKGPRDYNPISSSICHLTNESDGHTTSLYGIGFGPFIITNKHLFRRNNGTLVVQSLHGVFKVKDTTTLQQHLVDGRDMIIIRMPKDFPPFPQKLKFREPQREERICLVTQNFQTKSMSSMVSDTSCTFPSGDGIFWKHWIQTKDGQCGSPLVSTRDGFIVGIHSASNFTNTNNYFTSVPKNFMELLTNQEAQQWVSGWRLNADSVLWGGHKVFMVKPEEPFQPVKEATQL", "note": "[T115Q]", "area with substrate ENLYFQA": 0.123, "area with substrate ENLYFQC": 0.14, "area with substrate ENLYFQF": 0.084, "area with substrate ENLYFQG": 0.103, "area with substrate ENLYFQH": 0.0983, "area with substrate ENLYFQI": 0.0659, "area with substrate ENLYFQL": 0.0613, "area with substrate ENLYFQM": 0.0518, "area with substrate ENLYFQP": 0.0415, "area with substrate ENLYFQQ": 0.0791, "area with substrate ENLYFQR": 0.0539, "area with substrate ENLYFQS": 0.111, "area with substrate ENLYFQV": 0.0635, "area with substrate ENLYFQW": 0.0615, "area with substrate ENLYFQY": 0.0778},
      {"variant": "MGESLFKGPRDYNPISSSICHLTNESDGHTTSLYGIGFGPFIITNKHLFRRNNGTLVVQSLHGVFKVKDTTTLQQHLVDGRDMIIIRMPKDFPPFPQKLKFREPQREERICLVTRNFQTKSMSSMVSDTSCTFPSGDGIFWKHWIQTKDGQCGSPLVSTRDGFIVGIHSASNFTNTNNYFTSVPKNFMELLTNQEAQQWVSGWRLNADSVLWGGHKVFMVKPEEPFQPVKEATQL", "note": "[T115R]", "area with substrate ENLYFQA": 0.153, "area with substrate ENLYFQC": 0.114, "area with substrate ENLYFQI": 0.0519, "area with substrate ENLYFQL": 0.07, "area with substrate ENLYFQM": 0.119, "area with substrate ENLYFQP": 0.0558, "area with substrate ENLYFQR": 0.0561, "area with substrate ENLYFQS": 0.117, "area with substrate ENLYFQW": 0.0596, "area with substrate ENLYFQY": 0.108},
      {"variant": "MGESLFKGPRDYNPISSSICHLTNESDGHTTSLYGIGFGPFIITNKHLFRRNNGTLVVQSLHGVFKVKDTTTLQQHLVDGRDMIIIRMPKDFPPFPQKLKFREPQREERICLVTTNFCTKSMSSMVSDTSCTFPSGDGIFWKHWIQTKDGQCGSPLVSTRDGFIVGIHSASNFTNTNNYFTSVPKNFMELLTNQEAQQWVSGWRLNADSVLWGGHKVFMVKPEEPFQPVKEATQL", "note": "[Q118C]", "area with substrate ENLYFQA": 0.0308, "area with substrate ENLYFQG": 0.0788, "area with substrate ENLYFQI": 0.0697, "area with substrate ENLYFQL": 0.0559, "area with substrate ENLYFQN": 0.0825, "area with substrate ENLYFQR": 0.0665, "area with substrate ENLYFQS": 0.0928, "area with substrate ENLYFQT": 0.0539, "area with substrate ENLYFQW": 0.0784}
    ]}
  ]
}
